# Test results as given in PubChem BioAssay AID602293 (National Center for Advancing Translational Sciences (NCATS), 2012).
# About 30 (2%) of roughly 1,300 compounds were called active. The inconclusive results got no clear call from the source; some entries with a clear call stand among them for comparison. Calls follow the shape of the dose curve; as a rule, active = well fitted inhibition curve with a large enough effect; inconclusive = small, poorly fitted or top-dose-only effect; inactive = flat fitted curve, though single readings scatter. Potencies of inconclusive entries are doubtful fits and often do not repeat.
# Assay: qHTS for antagonists of the Thyroid Stimulation Hormone Receptor: Hit Validation in HTRF Activity in a Luteinizing Hormone Receptor Cell Line
# Conditions: LHR-expressing cell line, cAMP HTRF, antagonist mode
# Method in brief: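 HEK 293 cells stably expressing LH receptor, in DMEM with 10% FCS and 100 uM RO 20-1724, incubated with compound 30 min at room temperature. cAMP measured by competitive HTRF (anti-cAMP cryptate vs cAMP-d2), excitation 330 nm, emissions 615 and 660 nm.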
# Potency is read from the fitted curve at half-maximal effect; tags tell the direction and shape of the fitted curve.
row,Structure (SMILES),Potency
1,O=C(Nc1nc(-c2cccs2)c(-c2cccs2)s1)C1CCCC1,"inconclusive: 75.7 µM [inhibitor, partial curve]"
2,Cc1noc(C)c1COc1ccccc1C(=O)N(C)Cc1ccc(C(C)(C)C)cc1,"inconclusive: 190 µM [inhibitor, partial curve, poor fit]"
3,COc1ccc(OC)c2c1C(=O)C(Cl)=C(Cl)C2=O,"inconclusive: 95.3 µM [inhibitor, partial curve]"
4,C#CCn1c(=NC(=O)c2cccs2)sc2cccc(OC)c21,"inconclusive: 1070 µM [inhibitor, partial curve, poor fit]"
5,Fc1ccc2[nH]c3c(N4CCN(c5ccccc5)CC4)ncnc3c2c1,"inconclusive: 75.7 µM [inhibitor, partial curve]"
6,O=[N+]([O-])c1ccc(NC(=S)NCCc2ccc(F)cc2)cc1,"inconclusive: 269 µM [inhibitor, partial curve, poor fit]"
7,CC(=O)N(C1=C(Cl)C(=O)c2ccccc2C1=O)C1CCCCC1,"inconclusive: 67.5 µM [inhibitor, partial curve]"
8,Nc1nc(SCc2ccccc2Cl)ns1,inactive
9,Cc1c(Nc2cc(Cl)c3nonc3c2[N+](=O)[O-])c(=O)n(-c2ccccc2)n1C,"inconclusive: 75.7 µM [inhibitor, partial curve]"
10,S=C(Nc1ccc(Oc2ccccc2)cc1)NC1CCCCCC1,"inconclusive: 75.7 µM [inhibitor, partial curve, poor fit]"
11,CC(Oc1ccc(Cl)cc1Cl)c1nc(-c2ccc(NC(=O)c3cccnc3)cc2)no1 (configuration not stated),"inconclusive: 75.7 µM [inhibitor, partial curve]"
12,Cc1nnc(Sc2cc(NCCCO)c([N+](=O)[O-])c3nonc23)s1,"inconclusive: 75.7 µM [inhibitor, partial curve, poor fit]"
13,O=C(Nc1ccc2oc(-c3ccccc3F)nc2c1)c1ccc2c(c1)OCCO2,"inconclusive: 213 µM [inhibitor, partial curve, poor fit]"
14,COc1ccc2nc(C)cc(N3CCN(S(=O)(=O)c4ccccc4F)CC3)c2c1,"inconclusive: 75.7 µM [inhibitor, partial curve]"
15,O=C(COC(=O)c1ccccc1C(=O)c1ccc(Cl)c([N+](=O)[O-])c1)NC1CCCCCC1,inactive
16,COC(=O)c1sc(-c2ccc(C(C)(C)C)cc2)cc1NC(=O)/C=C/C(=O)O,"inconclusive: 301 µM [inhibitor, partial curve, poor fit]"
17,COc1ccc(C(NC(=O)c2c(F)c(F)c(F)c(F)c2F)c2ccccc2)cc1 (configuration not stated),"inconclusive: 169 µM [inhibitor, partial curve, poor fit]"
18,COc1ccc(OC)c(NC(=O)c2nc(S(=O)(=O)Cc3ccccc3)ncc2Cl)c1,"inconclusive: 67.5 µM [inhibitor, partial curve]"
19,O=C(NC1C2CC3CC(C2)CC1C3)c1ccc2c(c1)OCO2 (configuration not stated),inactive
20,CC(=O)OCCNc1cc(Sc2nc3ccccc3[nH]2)c2nonc2c1[N+](=O)[O-],"inconclusive: 169 µM [inhibitor, partial curve, poor fit]"
21,Cn1c(=O)c(C(=O)NNC(=O)c2cccc(Cl)c2)c(O)c2ccccc21,inactive

row,Structure (SMILES),Potency
1,Cc1ccccc1CS(=O)(=O)c1ncc(Cl)c(C(=O)Nc2ccc(F)cc2)n1,"inconclusive: 75.7 µM [inhibitor, partial curve, poor fit]"
2,CN(c1ccccc1)S(=O)(=O)c1ccc(NC(=O)c2nc(S(C)(=O)=O)ncc2Cl)cc1,active: 30.1 µM
3,O=C(NCCC1=CCCCC1)C1CCCN(S(=O)(=O)c2ccccc2)C1 (configuration not stated),inactive
4,N#CC(C#N)=C1C=CC=CN1/C(=C\c1ccco1)C(=O)c1ccc(Br)cc1,"inconclusive: 60.1 µM [inhibitor, partial curve]"
5,COc1cccc(COc2cc3ccccc3nc2C)c1,"inconclusive: 478 µM [inhibitor, partial curve, poor fit]"
6,O=C(Nc1ccc(Cl)c(Cl)c1)c1cccc(S(=O)(=O)NCc2cccnc2)c1,"inconclusive: 379 µM [inhibitor, partial curve, poor fit]"
7,CN(C)S(=O)(=O)Oc1cccc(C(=O)Nc2ccc(Cl)c(Cl)c2)c1,"inconclusive: 60.1 µM [inhibitor, partial curve]"
8,CCC(=O)N(CC)c1nc(-c2cc(OC)ccc2OC)cs1,"inconclusive: 213 µM [inhibitor, partial curve, poor fit]"
9,N#CC(C#N)=C1C=CC=CN1/C(=C\c1ccco1)C(=O)c1ccccc1,"inconclusive: 75.7 µM [inhibitor, partial curve]"
10,O=C(Nc1ccc(N2CCN(C(=O)c3ccccc3)CC2)cc1)c1cc2ccccc2o1,"inconclusive: 60.1 µM [inhibitor, partial curve]"
11,CC(C)(C)OC(=O)NCCCCCc1cn([C@@H](CO)C(=O)NCCCCCCCCCCC(=O)N2CCN(C(=O)OC(C)(C)C)CC2)nn1,active: 37.9 µM
12,CSc1nsc(NC(=O)OCc2ccc(Cl)cc2)n1,inactive
13,O=C(Nc1ccccc1)c1nnsc1S(=O)(=O)c1ccc(Cl)cc1,inactive
14,COc1cccc(NC(=O)Nc2nc(-c3ccc(OC)c(OC)c3)cs2)c1,active: 13.5 µM
15,CCC(=O)OCCNc1cc(Sc2nc3ccccc3[nH]2)c2nonc2c1[N+](=O)[O-],"inconclusive: 75.7 µM [inhibitor, partial curve]"
16,COc1ccc(NC(=O)/C(Cl)=C(/Cl)S(=O)Cc2ccc(Cl)cc2)cn1 (configuration not stated),"inconclusive: 169 µM [inhibitor, partial curve, poor fit]"
17,O=C(Nc1ccc(Cl)c(S(=O)(=O)N2CCOCC2)c1)c1ccc(OCC2CCCO2)cc1 (configuration not stated),active: 37.9 µM
18,Cc1nn(S(=O)(=O)c2ccccc2)c(C)c1Sc1ccc([N+](=O)[O-])cc1,"inconclusive: 190 µM [inhibitor, partial curve, poor fit]"
19,CCOc1ccc2nc(SC3CC(=O)N(c4ccccc4)C3=O)sc2c1 (configuration not stated),inactive
20,c1ccc(CNc2ncnc3scc(-c4cccs4)c23)nc1,"inconclusive: 338 µM [inhibitor, partial curve, poor fit]"
21,Cc1c(C(=O)Nc2ccc3c(c2)OCCO3)sc2nc(-c3ccccc3)cn12,"inconclusive: 100 µM [inhibitor, partial curve, poor fit]"

row,Structure (SMILES),Potency
1,Fc1ccc2[nH]c3c(N4CCN(Cc5ccc6c(c5)OCO6)CC4)ncnc3c2c1,"inconclusive: 67.5 µM [inhibitor, partial curve]"
2,O=C(Nc1nc2c(s1)CCCC2)c1ccc2ncsc2c1,inactive
3,CC1=CC(=O)C(C(C)C)=C/C1=N/OS(=O)(=O)c1ccccc1,active: 21.3 µM
4,CCCC(=O)N(C1CC(C)C(C#N)(C#N)C1(C#N)C#N)N(C)C (configuration not stated),"inconclusive: 169 µM [inhibitor, partial curve, poor fit]"
5,CC1CCC(C(C)C)C(OC(=O)Cn2c(-c3ccccc3)[n+](C)c3ccccc32)C1 (configuration not stated),"inconclusive: 169 µM [inhibitor, partial curve, poor fit]"
6,Cc1ccccc1Oc1cc(-n2ncc(Cl)c(Cl)c2=O)ncn1,"inconclusive: 75.7 µM [inhibitor, partial curve]"
7,CCN(CC)c1ccc2nc3ccccc3[n+](CC)c2c1,active: 30.1 µM
8,O=C(Nc1cccc(S(=O)(=O)N2CCCCC2)c1)c1ccc2c(=O)n3c(nc2c1)CCCCC3,"inconclusive: 75.7 µM [inhibitor, partial curve]"
9,Cc1nc(NCCc2ccccc2)c(C#N)c(C)c1[N+](=O)[O-],inactive
10,COc1cc(NC(=O)c2cc3ccccc3cc2O)c(OC)cc1Cl,"inconclusive: 75.7 µM [inhibitor, partial curve, poor fit]"
11,CCC(C)Sc1ccc(-c2nc3ccc(C)cn3c2NCc2ccccc2)cc1OC (configuration not stated),"inconclusive: 338 µM [inhibitor, partial curve, poor fit]"
12,CCOc1ccccc1NC(=O)c1nc(S(=O)(=O)Cc2cccc(C)c2)ncc1Cl,"inconclusive: 151 µM [inhibitor, partial curve, poor fit]"
13,CC1=C/C(=N\OS(=O)(=O)c2ccccc2)C(C)=CC1=O,active: 30.1 µM
14,CCc1ccc(NC(=O)c2nc(S(=O)(=O)Cc3ccccc3)ncc2Cl)cc1,"inconclusive: 169 µM [inhibitor, partial curve, poor fit]"
15,CN(C)c1ccc(/C=C/c2ccc3c4ccccc4ccc3[n+]2-c2ccccc2)cc1,"inconclusive: 1200 µM [inhibitor, partial curve, poor fit]"
16,Cc1ccc2c(c1)[nH]c1c(N3CCN(Cc4ccccc4)CC3)ncnc12,"inconclusive: 75.7 µM [inhibitor, partial curve, poor fit]"
17,Cc1ccc(NC(=O)C(C)c2ccc(-c3ccccc3)c(F)c2)cc1 (configuration not stated),"inconclusive: 75.7 µM [inhibitor, partial curve, poor fit]"
18,O=[N+]([O-])c1ccc(S(=O)(=O)c2ccccc2)nc1,"inconclusive: 67.5 µM [inhibitor, partial curve]"
19,Cc1ccc(OC(F)F)c(NC(=O)Nc2cccc(C(F)(F)F)c2)c1,"inconclusive: 190 µM [inhibitor, partial curve, poor fit]"
20,Cc1ccc(S(=O)(=O)NC(=O)Nc2ccc(N(C)C)cc2)cc1,"inconclusive: 757 µM [inhibitor, partial curve, poor fit]"
